The values below come from ChEMBL document CHEMBL4888484, “Replenishing the malaria drug discovery pipeline: Screening and hit evaluation of the MMV Hit Generation Library 1 (HGL1) against asexual blood stage Plasmodium falciparum ,using a nano luciferase reporter read-out” (2022).

Among all 150,000 compounds or so, about 540 (0.36%) showed an effect of 50% or more. Some of the results follow.

One may read the % Inhibition as the drop in the measured response relative to a control, in per cent.

The assay deals with Plasmodium falciparum. As to the kind of experiment: Primary screen in NF54 nanoGlo assay, in single point, at 2uM, 72h; a lower Z score goes with more inhibition. Format: functional, Erythrocyte. Particulars: timepoint 72 hour.
Take `COC(=O)N1CCCC(C(=O)OC(c2nccn2C)C(F)(F)F)C1` (stereo not given): the “% Inhibition” value is recorded as -2% and the Z score is reported as 0.23.

In the case of `NC(=O)Cn1ccnc1[C@H]1CCCN(C(=O)NCCc2cccs2)C1`, the “% Inhibition” value was 5% and the Z score was -0.51.

For the compound `O=c1c2cc(Cl)ccc2ncn1C[C@H]1CCCO1`, the “% Inhibition” value is reported as -12% and the Z score is recorded as 1.18.

Take `CNCCOc1ccc(Br)cc1`: the “% Inhibition” value was 0% and the Z score is reported as -0.06.

As to `Cc1ccc(-c2cc(C(=O)N3CCN(c4ccccc4)C(=O)[C@@H]3C)n[nH]2)s1`, the “% Inhibition” value is on record as -13% and the Z score is on record as 1.78.

As to `NC(=O)c1csc(C(=O)NC2(c3ccccc3)CCCC2)c1`, the “% Inhibition” value is -3% and the Z score is reported as 0.6.

Regarding `C[C@](O)(CNC(=O)c1c(F)cccc1F)c1ccc(-c2ccccc2)cc1`, the “% Inhibition” value is given as -8% and the Z score is 1.4.

`Cc1oc2ncn(C)c(=O)c2c1C(=O)N1CCN(c2ccccn2)CC1`: the “% Inhibition” value is -7% and the Z score is given as 1.28.

With `O=C(Nc1ccc2oc(-c3cc(Cl)ccc3Cl)nc2c1)c1ccc2c(c1)OCCO2`, the “% Inhibition” value is -15% and the Z score is 1.99.

Regarding `CC[C@H]1CN(Cc2cccn2-c2nccs2)CCN1C`, the “% Inhibition” value is -2% and the Z score was determined as 0.41.

Regarding `O=S(=O)(NC1(c2ccccc2Cl)CC1)N1CCCC1`, the “% Inhibition” value is given as -16% and the Z score was 3.03.

On to `CCn1nnc2c(=O)n(Cc3cccc4ccccc34)cnc21`, for which the “% Inhibition” value is -2% and the Z score is listed as 0.28.

Consider `N#Cc1c(F)cccc1NCC1(CCO)CC1`, for which the “% Inhibition” value is -4% and the Z score came out at 0.52.

As for `Cc1noc([C@@]23CN(C(=O)c4ccccc4)C[C@@H]2CN(C(=O)c2c(C)noc2C)C3)n1`, the “% Inhibition” value is -17% and the Z score was determined as 2.26.

Regarding `CCC(O)CN1C(=O)CC(C)(CC(C)C)C1=O` (stereo not given), the “% Inhibition” value is -2% and the Z score turned out to be 0.32.

With `O=C(Nc1ccc(-n2cnnn2)cc1)C(c1ccccc1)c1ccccc1`, the “% Inhibition” value is given as -5% and the Z score is given as 0.52.

With `CCOCCC1(CNC(=O)N2CCCC2(C)C)CCC1`, the “% Inhibition” value is listed as -18% and the Z score stood at 2.42.

In the case of `O=C(CC1C=CCCC1)NC1CCc2nnnn2CC1` (stereo not given), the “% Inhibition” value was determined as 1% and the Z score was -0.18.

For the compound `CC(C)C(=O)N1CCC([C@@H]2CN(Cc3ccccc3Cl)C[C@H]2CO)CC1`, the “% Inhibition” value is given as -11% and the Z score turned out to be 1.24.

In the case of `Cc1nc(C2CCOCC2)n([C@H]2CCN(S(=O)(=O)c3ccc(F)cc3F)C2)n1`, the “% Inhibition” value was -5% and the Z score is listed as 0.72.

Take `CN(CC=Cc1ccc(F)cc1)CCN1CCCC1=O`: the “% Inhibition” value is given as -10% and the Z score is recorded as 1.54.

Consider `Cc1cccc(-c2ncc(C(=O)N3CCN(c4ncccn4)CC3)c(O)n2)c1`, for which the “% Inhibition” value is recorded as -5% and the Z score is 1.02.

Consider `CC(C)[C@H](NC(=O)c1ccccc1)c1nnn(C)n1`, for which the “% Inhibition” value is reported as -8% and the Z score is given as 1.

Turning to `COc1ccc(CCNC(=O)c2c[nH]nc2-c2ccccc2)cc1`, the “% Inhibition” value was determined as 0% and the Z score amounted to 0.03.

`N#CC1(NC(=O)Cc2c[nH]c3cc(Cl)ccc23)CCC1`: the “% Inhibition” value is -3% and the Z score worked out at 0.55.

For the compound `O=C(Nc1nc(-c2ccncc2)ns1)c1cncc(F)c1`, the “% Inhibition” value was -13% and the Z score was determined as 1.43.

For `CCCc1sc(C(=O)NCCNC(=O)N(C)C)cc1CC`, the “% Inhibition” value is -12% and the Z score was found to be 1.18.

`O=C(c1n[nH]c2c1CCC2)N(Cc1ccco1)C[C@H]1CCCO1`: the “% Inhibition” value was 8% and the Z score is on record as -0.99.

As to `Cc1c(C(C)C)c(=O)n(-c2ccc(S(=O)(=O)Nc3cccc(S(=O)(=O)NC4CC4)c3)cc2)n1C`, the “% Inhibition” value is reported as -3% and the Z score came to 0.26.

Turning to `COc1cccc([C@H]2CC(=O)Nc3c(C(=O)O)cn(-c4cccc(OC)c4)c32)c1`, the “% Inhibition” value amounted to 35% and the Z score is on record as -3.94.

In the case of `Cc1c2c(C(F)(F)F)cc(=O)n(CCC(=O)Nc3ncc(Cl)cc3Cl)c2nn1C`, the “% Inhibition” value is listed as 31% and the Z score is listed as -4.15.

`CCOC1CC(N(C)C(=O)NCc2cc(C(N)=O)co2)C12CCC2` (stereo not given): the “% Inhibition” value is listed as -6% and the Z score turned out to be 0.77.

As to `CCCOC[C@H]1CCN(C(=O)c2cc3ncccn3n2)C1`, the “% Inhibition” value is listed as -6% and the Z score is on record as 0.87.

Take `Cc1cc(-c2cc(OC(C)C)nc(N)n2)[nH]n1`: the “% Inhibition” value is reported as 1% and the Z score is listed as -0.28.

For the compound `CC(C)C(=O)N1CCOc2ccc(CN3CCOCC3)cc2C1`, the “% Inhibition” value is on record as -16% and the Z score was found to be 1.72.

As for `Cc1cnn(CCC(=O)N2C[C@H]3CCCC(=O)N(Cc4cccc(F)c4)[C@H]3C2)c1`, the “% Inhibition” value is recorded as 30% and the Z score is on record as -3.41.

As to `C=CCN(Cc1ccccc1OCC)C(=O)CCC(F)(F)F`, the “% Inhibition” value was 12% and the Z score was -1.54.

For the compound `COc1cc(C(=O)Nc2cccnc2)ccc1OCc1c(Cl)cccc1Cl`, the “% Inhibition” value is 9% and the Z score is -1.06.

As to `CO[C@H]1CN(C(C)C)C[C@@H]1NC(=O)N1CC(n2nc(C)cc2C)C1`, the “% Inhibition” value is on record as -8% and the Z score was found to be 1.35.

As for `CCN1[C@H](C)CN(c2nccc(C(F)(F)F)n2)C[C@@H]1C`, the “% Inhibition” value is -2% and the Z score turned out to be 0.23.

`Cc1cc(C)cc(C(=O)Nc2cccnc2N2C(=O)OC(C(F)(F)F)C2C)c1` (stereo not given): the “% Inhibition” value is -18% and the Z score turned out to be 2.33.

As to `CNC(=O)CN1CCN(Cc2[nH]cnc2C)CC1`, the “% Inhibition” value is -10% and the Z score was determined as 0.95.

With `CCN1C[C@@H](C(=O)Nc2csc(N3CCCCC3)n2)CC1=O`, the “% Inhibition” value is -2% and the Z score is recorded as 0.4.

On to `Cc1c(-c2ccccc2)[nH]c2c(CNC(=O)[C@@H]3CNC(=O)C3)cc(Cl)cc12`, for which the “% Inhibition” value is recorded as -4% and the Z score amounted to 0.48.

In the case of `CC(CC1CCC1)N[C@H](C(=O)OC(C)(C)C)C(C)C` (stereo not given in full), the “% Inhibition” value is -20% and the Z score is 1.71.

On to `O=C(Nc1cnn(-c2nccs2)c1)N1CCCC[C@@H]1CO`, for which the “% Inhibition” value is -6% and the Z score came to 0.78.

With `O=C(NS(=O)(=O)CCC1CCCCC1)[C@H]1C[C@@H]1C1CCC1`, the “% Inhibition” value is reported as -5% and the Z score is recorded as 0.86.

Regarding `COc1nccnc1N1CCC[C@H](C(=O)c2ccccn2)C1`, the “% Inhibition” value is recorded as -1% and the Z score was found to be 0.21.

In the case of `O=C(Cc1ccccc1Br)N1CC2CC1CO2` (stereo not given), the “% Inhibition” value is given as -14% and the Z score is 1.57.

`COC[C@@H]1C[C@H](OC)CN1C(=O)NCC1CCCCS1(=O)=O` (stereo not given in full): the “% Inhibition” value is on record as -11% and the Z score was found to be 1.38.

For the compound `O=C(N[C@H]1C[C@@H]2C[C@H]1CN2C(=O)c1ccc(OC(F)(F)F)cc1)c1cccs1`, the “% Inhibition” value is given as -2% and the Z score was found to be 0.24.

For `CCCCn1ncc(C)c1NC(=O)Cc1cccnc1`, the “% Inhibition” value is on record as -7% and the Z score is reported as 1.39.

With `Cc1cccc(NC(=O)c2oc(C3CC3)nc2C)c1C`, the “% Inhibition” value was -7% and the Z score was found to be 1.14.

Turning to `C[C@@H]1CN(Cc2nnnn2CC(=O)N(C)CCC2CCOCC2)C[C@H](C)O1`, the “% Inhibition” value is recorded as -8% and the Z score is given as 1.02.

For `Cc1ccc(Nc2[nH]nnc2C(=O)Nc2ccc3c(c2)OCCO3)cc1C`, the “% Inhibition” value is -13% and the Z score was found to be 1.47.
